In all, about 410,000 compounds went through this assay and about 5,000 (1.2%) were called active. The inconclusive results got no clear call from the source; some entries with a clear call stand among them for comparison. The call rests on the fitted dose curve; in most records, active means well fitted inhibition curve with a large enough effect; inconclusive means small, poorly fitted or top-dose-only effect; inactive means no such curve, though single readings can be large or run the other way. Potencies of inconclusive entries are doubtful fits and often do not repeat.
test: qHTS for Inhibitors of TGF-b; conditions: HepG2 CAGA-GFP TGF-b/SMAD3 reporter, GFP fluorescence, 18 h, TGF-beta stimulated, 500 pg/mL final; series mostly up to 46.1 µM; activity, negative = inhibition: at the top concentration; further: nearly all actives have a fitted effect of over 65% in size
Summary of the method: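 Smad-responsive CAGA-GFP expression was quantified in HEPG2 cells exposed to compounds and 500 pg/mL final TGF-beta for 18 h at 37 degrees C; unstimulated wells defined full inhibition.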
On the % scale 0 is the no-effect control and ±100 the full control effect; potency means the concentration at half of the fitted maximal effect; tags describe the fitted curve by direction and shape.

Row | SMILES | activity, negative = inhibition | Potency
1 | COC(=O)Nc1nc2ccccc2[nH]1 | inactive: -2.91% | –
2 | COC(=O)C1=C(c2cc3ccccc3o2)C[C@@H]2CC[C@H]1N2C(=O)NCc1ccccc1 | – | inconclusive: 20 µM [inhibitor, single point]
3 | CCN(CC)C(=O)c1ccc(NC(=O)c2cccc(S(=O)(=O)N3CCN(Cc4ccccc4)CC3)c2)cc1 | – | inconclusive: 15.8 µM [inhibitor, single point]
4 | O=C(Cc1ccccc1)OCCN1CCCCC1 | – | inconclusive: 2.82 µM [inhibitor, single point]
5 | CCOP(=O)(OCC)c1nc(-c2cccc3ccccc23)oc1N1CCCCC1 | – | inconclusive: 15.8 µM [inhibitor, partial curve]
6 | C#C[C@]1(O)CC[C@H]2[C@@H]3CCC4=Cc5nc6nc7ccccc7n6cc5C[C@]4(C)[C@H]3CC[C@@]21C | inactive: 23.3% | –
7 | Cc1sc(-n2c(C)cc(C=C3C(=O)NC(=O)NC3=O)c2C)c(C#N)c1C | – | inconclusive: 2.82 µM [inhibitor, full curve, poor fit]
8 | COC(=O)C1=C(c2ccccc2)C[C@@H]2CC[C@H]1N2C(=O)N1CCOCC1 | inactive: 5.8% | –
9 | COc1ccc(CCNC(=O)N2c3ccccc3Sc3ccccc32)cc1 | – | inconclusive: 8.91 µM [inhibitor, partial curve, poor fit]
10 | CCC(C)/C=C(C)/C=C/C1=CC2=C(Cl)C(=O)C(C)(OC(C)=O)C(=O)C2=CO1 (centres undefined) | – | inconclusive: 35.5 µM [inhibitor, single point]
11 | COc1ccc(OCC(=O)N2CCN(Cc3cccc(OC)c3OC)CC2)cc1 | inactive: 2.65% | –
12 | C[n+]1ccc(-c2ccccc2)c2ccccc21 | – | inconclusive: 35.5 µM [inhibitor, single point]
13 | Oc1c(Br)cc(Br)cc1Br | inactive: -5.34% | –
14 | CCOC(=O)c1cccc(NC(=O)c2c(O)[nH]c(=O)[nH]c2=O)c1 | – | inconclusive: 17.8 µM [inhibitor, single point]
15 | CCC(c1nnnn1-c1ccc2c(c1)OCCO2)N1CCC2(CC1)C(=O)NCN2c1ccccc1 (centres undefined) | – | inconclusive: 31.6 µM [inhibitor, single point]
16 | Cn1nc(C(C)(C)C)cc1C(=O)N1CCCCC1c1cc(C(=O)Nc2ccc(F)c(Cl)c2)no1 (centres undefined) | – | inconclusive: 15.8 µM [inhibitor, single point]
17 | COC(=O)C1=C(c2ccc(OCc3ccccc3)cc2)C[C@@H]2CC[C@H]1N2C(=O)NCc1cccc(OC)c1 | – | inconclusive: 35.5 µM [inhibitor, single point]
18 | CCOc1ccc(N2C(=O)/C(=C/c3ccco3)C(=O)NC2=S)cc1 | – | inconclusive: 20 µM [inhibitor, partial curve, poor fit]
19 | Cc1ccc2nc(N3CCC(C(=O)N4CCC5(CC4)OCCO5)CC3)sc2c1 | inactive: -15.4% | –
20 | Cc1ccc(NC(=O)N(Cc2ccc3c(c2)OCO3)C2CCN(Cc3ccccc3)CC2)cc1C | – | inconclusive: 25.1 µM [inhibitor, single point]
21 | CCNC(=O)CCSc1nc2cc(Cl)ccc2o1 | – | inconclusive: 17.8 µM [inhibitor, single point]
22 | O=C(N/N=C/c1c(O)n(Cc2ccc(F)cc2)c(=S)[nH]c1=O)c1ccncc1 | inactive: 30.3% | –

Row | SMILES | activity, negative = inhibition | Potency
23 | C=CC[C@H](CC(=O)N(CCO)Cc1ccccc1)C(=O)NC[C@H](OC(=O)[C@@H](CC=C)CC(=O)OC(C)(C)C)c1ccccc1 | – | inconclusive: 35.5 µM [inhibitor, single point]
24 | COc1ccc(C(c2nnnn2C2CCCCC2)N2CCC3(CC2)C(=O)NCN3c2ccccc2)cc1 (centres undefined) | – | inconclusive: 7.08 µM [inhibitor, partial curve]
25 | CSc1ccc(/C=C/c2nc3ccccc3c(=O)n2-c2cccc(Cl)c2C)cc1 | – | inconclusive: 22.4 µM [inhibitor, single point]
26 | C[C@@]1([C@@H](NP(=O)(c2ccccc2)c2ccccc2)c2ccccc2)C[C@H]1CCO | – | inconclusive: 39.8 µM [inhibitor, partial curve, poor fit]
27 | Cc1cc(OCC(=O)N2CCN(CCc3ccncc3)CC2)ccc1Cl | – | inconclusive: 20 µM [inhibitor, single point]
28 | Oc1ccccc1-[n+]1c(-c2ccccc2)cc(-c2ccccc2)cc1-c1ccccc1 | – | inconclusive: 35.5 µM [inhibitor, partial curve, poor fit]
29 | O=S(=O)(c1ccc(O)cc1)c1ccc(O)cc1 | inactive: 6.33% | –
30 | CCOC(=O)c1c(NC(=O)c2c(N)n(CCCOC)c3nc4ccccc4nc23)sc2c1CCCC2 | – | inconclusive: 31.6 µM [inhibitor, single point]
31 | CCCCCn1c(=O)c(C(=O)Nc2cnccn2)c(O)c2ccccc21 | – | inconclusive: 22.4 µM [inhibitor, single point]
32 | O=C1NC(=O)N(c2ccccc2)C(=O)/C1=C/c1ccc(Sc2ccccc2)o1 | inactive: 23% | –
33 | CCOc1ccc(CN(CCc2ccc3c(c2)OCO3)Cc2cc(OC)ccc2O)cc1 | – | inconclusive: 35.5 µM [inhibitor, single point]
34 | CCCCCOc1ccc(C)cc1CN(CCCl)CCCl | – | inconclusive: 22.4 µM [inhibitor, single point]
35 | COC(=O)c1nc(-c2ccc3c(n2)C(=O)C(N)=C(OC)C3=O)c(N)c(-c2ccc(OC)c(OC)c2O)c1C | – | inconclusive: 5.62 µM [inhibitor, partial curve, poor fit]
36 | CCn1nc(/C=C/c2ccccc2)nc2c(=O)n(C)c(=O)nc1-2 | – | active: 0.398 µM
37 | CCCCC(=O)N/N=C/c1c(O)n(CC)c(=S)n(CC)c1=O | – | active: 22.4 µM
38 | CCOC1=C(N2CC2)C(=O)C(OCC)=C(N2CC2)C1=O | inactive: -1.63% | –
39 | CCCCn1c(O)c(C(CC)=Nc2ccc(OCC)cc2)c(=O)[nH]c1=O | inactive: 13.9% | –
40 | CCc1ccc(CNCCc2ccccc2F)cc1 | – | inconclusive: 35.5 µM [inhibitor, single point]
41 | C=CCOC(=O)C1=C(C)OC(N)=C(C(=O)OCC)C12C(=O)N(CC(N)=O)c1ccccc12 (centres undefined) | – | inconclusive: 0.1 µM [inhibitor, full curve, poor fit]
42 | CCOc1ccc(NC(=O)c2c(C)nn(Cc3ccccc3)c2Cl)cc1 | inactive: 8.16% | –
43 | Cc1ccc(S(=O)(=O)N(C)C[C@H]2Oc3cc(Br)ccc3S(=O)(=O)N([C@H](C)CO)C[C@H]2C)cc1 | – | inconclusive: 35.5 µM [inhibitor, single point]
44 | CC(C)N1CCN(Cc2c[nH]c3ccccc23)CC1CCO (centres undefined) | inactive: -3.14% | –

Row | SMILES | activity, negative = inhibition | Potency
45 | COc1cc(CN2CCc3nc(N4CCN(c5ncccn5)CC4)ncc3C2)cc(OC)c1OC | – | inconclusive: 14.1 µM [inhibitor, partial curve, poor fit]
46 | Oc1cc(Cl)c(Cl)c(Cl)c1Cl | – | inconclusive: 7.08 µM [inhibitor, partial curve]
47 | O=C(Nc1c(Cl)cccc1Cl)Oc1cccc2cccnc12 | – | inconclusive: 1.26 µM [inhibitor, full curve, poor fit]
48 | Nc1nonc1OCCCCOc1nonc1N | inactive: -19.2% | –
49 | CCOC(=O)C1=C(C)N(C)C2(C)CC1c1ccccc1O2 (centres undefined) | – | inconclusive: 8.91 µM [inhibitor, partial curve, poor fit]
50 | O=C(Nc1ccc(Cl)c(C(F)(F)F)c1)NC1CC2CCCC(C1)N2Cc1ccccc1 (centres undefined) | – | active: 20 µM
51 | CC/C(=C(\c1ccc(O)cc1)c1ccc(OCCN(C)C)cc1)c1ccccc1 | – | inconclusive: 35.5 µM [inhibitor, single point]
52 | CN1CCC(=O)N(CCN=[N+]=[N-])CC1 | – | inconclusive: 6.31 µM [inhibitor, single point]
53 | C=CCN1C(=O)NC(=O)/C(=C/C=C/c2ccccc2)C1=O | – | inconclusive: 15.8 µM [inhibitor, single point]
54 | Cc1ccc(NC(=O)NCc2ccc3c(c2)CCN3C(=O)c2ccccc2)c(Cl)c1 | – | inconclusive: 12.6 µM [inhibitor, partial curve, poor fit]
55 | COc1ccc2c(c1)c(CCN)c(C)n2Cc1ccccc1 | – | inconclusive: 25.1 µM [inhibitor, single point]
56 | CCCCn1nnnc1C(CCSC)N1CCC2(CC1)C(=O)NCN2c1ccccc1 (centres undefined) | – | inconclusive: 35.5 µM [inhibitor, single point]
57 | N#Cc1cc2c(nc1SCC(=O)Nc1ccc(C(F)(F)F)cc1)C1CCN2CC1 | – | inconclusive: 12.6 µM [inhibitor, partial curve, poor fit]
58 | CC1CCC(C)(NS(=O)(=O)OCC(Cl)(Cl)Cl)CC1 (centres undefined) | – | inconclusive: 7.08 µM [inhibitor, partial curve, poor fit]
59 | Cc1cc2c(cc(C(=O)N3CCC(C(=O)NC4CCCC4)CC3)n2Cc2c(F)cccc2Cl)o1 | – | inconclusive: 6.31 µM [inhibitor, single point]
60 | CCOC(=O)c1c(-n2c(C)cc(C=C3C(=O)NC(=S)NC3=O)c2C)sc2c1CCCC2 | – | inconclusive: 35.5 µM [inhibitor, single point]
61 | O=C(Nc1ccc(Br)cc1)c1cccc(S(=O)(=O)N2CCc3ccccc32)c1 | – | inconclusive: 7.94 µM [inhibitor, partial curve, poor fit]
62 | c1ccc(CCc2ccc3n2Cc2cnnn2-c2ccccc2-3)cc1 | – | inconclusive: 15.8 µM [inhibitor, single point]
63 | COc1ccccc1NP1(=O)OCC(C)([N+](=O)[O-])CO1 (centres undefined) | – | inconclusive: 3.16 µM [inhibitor, single point]
64 | CCOC(=O)C1CCN(/C=C2/C(=O)NC(=S)N(c3cccc(OC)c3)C2=O)CC1 | inactive: -6.32% | –

Source: PubChem BioAssay AID588855 (National Center for Advancing Translational Sciences (NCATS), 2011)
